# Hit rate of the full screen: of about 310,000 compounds, about 14,000 (4.5%) showed an effect of 50% or more. Effects have a minus sign here. The list shows a part of the results.
# Biological target: human ether-à-go-go-related gene (hERG) potassium channel (human, UniProt Q12809)
# Test: primary screen, population patch clamp on CHO cells stably expressing hERG
# 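Note: peak tail current of the secondary pulse compared with the same well before compound.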
# Sequence of human ether-à-go-go-related gene (hERG) potassium channel (Q12809 whole entry, looked up): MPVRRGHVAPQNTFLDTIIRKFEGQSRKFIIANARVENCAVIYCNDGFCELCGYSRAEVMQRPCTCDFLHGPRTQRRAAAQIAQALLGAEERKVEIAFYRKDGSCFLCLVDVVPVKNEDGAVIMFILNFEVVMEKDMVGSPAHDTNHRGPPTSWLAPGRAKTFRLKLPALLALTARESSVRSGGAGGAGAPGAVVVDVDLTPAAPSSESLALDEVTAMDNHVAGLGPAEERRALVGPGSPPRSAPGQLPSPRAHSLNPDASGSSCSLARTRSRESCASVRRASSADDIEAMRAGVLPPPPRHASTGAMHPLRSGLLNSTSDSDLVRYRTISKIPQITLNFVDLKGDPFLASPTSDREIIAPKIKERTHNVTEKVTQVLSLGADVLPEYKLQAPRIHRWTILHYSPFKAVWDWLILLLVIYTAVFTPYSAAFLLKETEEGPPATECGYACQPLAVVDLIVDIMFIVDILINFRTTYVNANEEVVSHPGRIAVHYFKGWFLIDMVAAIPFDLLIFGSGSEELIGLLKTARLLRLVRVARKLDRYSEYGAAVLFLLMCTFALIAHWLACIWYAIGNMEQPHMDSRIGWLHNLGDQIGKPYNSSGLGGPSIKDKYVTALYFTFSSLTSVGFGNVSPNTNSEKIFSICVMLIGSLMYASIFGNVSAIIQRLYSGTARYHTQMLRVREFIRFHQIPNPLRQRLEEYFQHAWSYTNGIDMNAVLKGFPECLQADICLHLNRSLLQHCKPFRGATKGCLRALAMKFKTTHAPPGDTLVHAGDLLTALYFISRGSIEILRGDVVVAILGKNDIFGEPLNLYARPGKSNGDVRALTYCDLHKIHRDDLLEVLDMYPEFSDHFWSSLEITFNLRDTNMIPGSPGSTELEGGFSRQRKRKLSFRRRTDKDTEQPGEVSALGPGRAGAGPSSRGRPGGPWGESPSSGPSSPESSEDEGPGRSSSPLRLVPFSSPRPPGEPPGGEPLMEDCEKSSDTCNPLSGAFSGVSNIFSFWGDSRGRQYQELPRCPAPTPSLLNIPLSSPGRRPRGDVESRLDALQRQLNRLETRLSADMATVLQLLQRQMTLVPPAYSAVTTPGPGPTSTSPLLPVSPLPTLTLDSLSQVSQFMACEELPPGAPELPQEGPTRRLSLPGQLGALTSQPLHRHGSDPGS
row,Structure (SMILES),"hERG current change (%, negative = inhibition) at 10uM [%]"
1,Cc1ccc(S(=O)(=O)N2CCC(C(=O)OCC(=O)NCc3ccco3)CC2)cc1C,-23.8
2,CN(Cc1ccccc1F)Cc1cc(=O)oc2cc(O)c(Cl)cc12,12.6
3,COc1ccccc1C(=O)NNC1=NS(=O)(=O)c2ccccc21,20.3
4,Cc1cccc(NC(=O)N2CCCC2C(=O)Nc2ccccc2)c1 (stereo not shown),3.62
5,C[C@@H](C(=O)OCn1nnc2ccccc2c1=O)N1C(=O)C2CCCCC2C1=O (stereo partly shown),9.61
6,Cc1ccc(C)c(Cn2nnc(C(=O)Nc3ccc4c(c3)OCCO4)c2N)c1,2.15
7,O=C(CCC(=O)N1CCN(c2ccccc2F)CC1)N1CCN(c2ccccc2)CC1,-22.8
8,O=C(CN1CCN(C(=O)N2CCCCC2)CC1)Nc1ccc(F)cc1,-74.9
9,CCn1nc(C)c(/C=N/NC(=O)c2nc3nc(C)cc(C)n3n2)c1C,14.1
10,COc1cc(-c2cc(-c3ccccc3)nc(SCC(=O)Nc3nccs3)c2C#N)cc(OC)c1OC,17.9
11,CCOC(=O)C1CCN(C(=O)N(CC)CC)CC1,11
12,COc1cccc(NC(=O)Nc2ccc(Cc3ccncc3)cc2)c1,11
13,CCOc1ccc(CC(=O)N/N=C(\C)c2cccnc2)cc1OCC,17.8
14,COc1cccc(N(C(=O)Cc2cccs2)C(C(=O)NC2CCCC2)c2ccncc2)c1 (stereo not shown),1.74
15,CCc1nnc(NS(=O)(=O)c2ccc(NC(=O)c3ccccc3O)cc2)s1,16.5
16,COc1ccc(/C=C(/NC(=O)c2ccco2)C(=O)Nc2cccc(C(=O)O)c2)cc1,18.7
17,CCOC(=O)CCCNC(=O)COC(=O)c1cc(C)cc(C)c1,-16.3
18,CC(=O)OC1OCCOC1NC(=S)Nc1ccc(C)cc1 (stereo not shown),5.94
19,COc1ccc(C)cc1NC(=O)C(OC(=O)c1cnccn1)c1ccccc1 (stereo not shown),-27.5
20,O=C(CSCc1ccc(C(=O)O)cc1)Nc1ccccc1,2.97
21,Cc1onc(-c2ccccc2Cl)c1C(=O)N(C)C1CCCCC1,0.889
22,Cc1ccc(C)c(Cn2nnc3c(=O)[nH]c(C4CCCN(C(=O)C5CCCCC5)C4)nc32)c1 (stereo not shown),-51.5

row,Structure (SMILES),"hERG current change (%, negative = inhibition) at 10uM [%]"
1,C#CCOc1c(Br)cc(/C=N/O)cc1OCC,-3.85
2,CC(SCC(=O)Nc1ccc(S(=O)(=O)N2CCCCC2)cc1)C(=O)O (stereo not shown),8.35
3,CC(Nc1cc(C)cc(C)c1)=[N+](C)CCNS(=O)(=O)c1ccc(Cl)cc1.[I-],-48.5
4,CCOc1ccccc1OCC(=O)Nc1cc(S(=O)(=O)N2CCCCC2)ccc1OC,-16
5,CS(=O)(=O)c1ccc(NC(=O)c2cccc(S(=O)(=O)N3CCN(Cc4ccccc4)CC3)c2)cc1,-1.25
6,CCSc1nnc(NC(=O)C2C3CCC(C3)C2C(=O)O)s1 (stereo not shown),34.5
7,CCC(CC)c1nnc(NC(=O)c2cc(-c3ccccc3)nc3ccccc23)s1,9.31
8,O=C1CCC(C(=O)OCC(=O)N2N=C3/C(=C/c4ccccc4)CCCC3C2c2ccccc2)N1 (stereo not shown),-70.3
9,Cc1ccc(-c2nc(C3CCN(S(=O)(=O)c4ccc(C(F)(F)F)cc4)CC3)no2)cc1,19.6
10,CCOC(=O)N1CCN(C(=O)C(NC(=O)c2ccc(C(C)(C)C)cc2)C(C)C)CC1 (stereo not shown),-37.7
11,O=C(Cc1ccc(-n2c(=O)c3ccccc3n(Cc3ccccc3F)c2=O)cc1)NCC1CCCO1 (stereo not shown),4.96
12,COc1cccc(-n2c(SCC(=O)N3CCOCC3)nc3c([nH]c4ccccc43)c2=O)c1,-4.88
13,CC(CN1CCCCC1)OC(=O)c1cccc(F)c1.Cl (stereo not shown),6.39
14,CN1CCc2c(C#N)c(N3CCCCC3)nc(N3CCOCC3)c2C1,-24.8
15,NC(=O)c1cc(NC(=O)CCNS(=O)(=O)c2cccc(C(F)(F)F)c2)cc(C(N)=O)c1,13
16,CCCCC1=CC2=CC(=O)C(C)(OC(=O)CC)C(=O)C2=CN1Cc1ccc2c(c1)OCO2 (stereo not shown),-55.3
17,Cn1c(=O)oc2cc(S(=O)(=O)N3CCc4ccccc4C3)ccc21,13.3
18,CCOc1ccc(-c2cc(C(=O)NCCCn3ccnc3)c3ccccc3n2)cc1,-16
19,Cn1ccs/c1=N\S(=O)(=O)c1ccc(C(C)(C)C)cc1,-11.5
20,CCOc1ccc(NC(=S)NC(=O)Cc2ccccc2)cc1,25.5
21,COc1cccc(-c2nn(-c3ccccc3)cc2CNC(C)Cn2cncn2)c1 (stereo not shown),-42.5
22,COc1cc(NC(=O)CCCNC(=O)c2ccc(Cl)cc2)cc(OC)c1OC,10.2

row,Structure (SMILES),"hERG current change (%, negative = inhibition) at 10uM [%]"
1,CCCCCOC(=O)C1=C(C)Nc2nnnn2C1c1ccc(OC)c(OC)c1OC (stereo not shown),-41.4
2,C/C(=N\Nc1ccc(F)cc1F)c1ccc(Br)s1,-4.68
3,CCOc1ccc(CCNC(=O)Nc2cccc(OC)c2)cc1OCC,14.5
4,O=C(c1cc(-c2ccccc2)nc2ccccc12)N1CCOCC1,27.6
5,CN(C)c1ccc(/C=N/NC(=O)c2cnc3ccccc3c2)cc1,2.71
6,N=C1/C(=C/c2ccc(OC(=O)c3ccco3)cc2)C(=O)N=C2SC=CN12,31.7
7,O=C(NC(=S)N1CCN(c2ccc([N+](=O)[O-])cc2)CC1)c1ccccc1Cl,-39.8
8,COc1ccc(OCC(=O)O/N=C(\N)Cc2ccc(Cl)cc2Cl)cc1,9.69
9,CCN1CCN(C(=O)C(C)Sc2nnc3nc(C)cc(C)n23)CC1 (stereo not shown),-4.58
10,COc1ccc(COC(=O)CCS(=O)(=O)c2ccc(C)cc2)cc1F,-21.3
11,COc1ccc(C2(C(=O)NCCc3ccccc3)CCCC2)cc1OC,12.2
12,C/C(=N\NC(=O)c1cc2ccccc2cc1O)c1ccccn1,-3.94
13,Cc1n[nH]c(=O)nc1NC(C)c1ccccc1 (stereo not shown),-1.42
14,Cc1nn2c3c(cnc2c1-c1ccccc1)C(=O)CC(c1ccccc1)C3 (stereo not shown),7.17
15,O=C(O)c1ccc(-n2c(-c3cc(C4CC4)[nH]n3)n[nH]c2=S)cc1,18.5
16,O=C(CCN1C(=O)c2ccncc2C1=O)Nc1ccc(F)cc1,0.499
17,COc1cccc(/C=N/n2nnnc2N)c1OCC#N,7.86
18,COc1ccc(CNC(=O)CN2C(=O)C3C4C=CC(C4)C3C2=O)cc1 (stereo not shown),19.2
19,Cc1oc(-c2ccc(Cl)cc2)[n+]([O-])c1C.Cl,10.4
20,C=CCNC(=S)N1CCc2[nH]c3ccccc3c2C1,4.64
21,COc1ccccc1N1CCN(CC(=O)Nc2c(C)n[nH]c2C)CC1,9.97
22,CCn1ccnc1CN(C)C(=O)c1cc(COc2ccccc2SC)on1,-10.7

row,Structure (SMILES),"hERG current change (%, negative = inhibition) at 10uM [%]"
1,CCN(CC)C(=O)Cn1cc(C(=O)C(=O)NCc2cccs2)c2ccccc21,5.77
2,COc1ccccc1C(=O)NC(CCSC)C(=O)NNC(=O)c1ccccc1C (stereo not shown),-11.8
3,Cc1ccc(Cn2c3ccccc3c3cn[nH]c(=O)c32)cc1,6.46
4,Cn1cc(CN2CCN(c3cnccn3)CC2)c(-c2cccc(Cl)c2)n1,6.29
5,O=C(C1=C[C@H](C2CCCCC2)C[C@H](OCCCCO)O1)N1CCN(Cc2ccc3c(c2)OCO3)CC1,-56.5
6,CC(=O)NC1C(c2nc3ccccc3s2)=C(c2ccccc2)C(=O)N1c1ccc(C)cc1 (stereo not shown),11.7
7,O=[N+]([O-])c1ccc(-c2c(O)c3ccccc3c3nc4ccccc4nc23)cc1,18
8,O=C(COC(=O)c1ccccc1O)Nc1cc([N+](=O)[O-])ccc1Cl,-21.5
9,COc1ccc(CSc2ccc(-c3nc4ccccn4c3NCc3ccccc3)cc2OC)cc1.O=C(O)C(F)(F)F,8.68
10,CC(C)C[C@H](NC(=O)c1nc[nH]c1C(=O)N[C@@H](CC(C)C)C(=O)OC(C)(C)C)C(=O)OC(C)(C)C,21.9
11,COC(=O)c1ccc(NC(=O)CSc2n[nH]c(-c3ccncc3)n2)cc1,-11.4
12,C=C1c2cccc(O)c2C(O)=C2C(=O)[C@]3(O)C(O)=C(C(N)=O)C(=O)[C@@H](N(C)C)[C@@H]3[C@@H](O)[C@H]12.Cl,17.9
13,CCSC1=NCCN1C(=O)c1ccc(S(=O)(=O)N(C)C)cc1,10.5
14,Cc1onc(-c2ccccc2Cl)c1NC(=O)NCc1cccs1,6.48
15,COc1ccc(-c2nc(CN3CCN(Cc4cccc(Cl)c4)CC3)c(C)o2)cc1,-33.1
16,O=C(c1ccco1)N(Cc1ccc(Cl)cc1)C1CCS(=O)(=O)C1 (stereo not shown),-11.6
17,COC(=O)c1ccc(C(=O)OC)c(NC(=O)CCC(=O)O)c1,0.41
18,Cc1ccc(NC(=O)Cn2nnc(-c3ccccc3NC(=O)c3cccs3)n2)cc1,21.7
19,CCNC(=O)CSc1nnc(C2CC2)n1-c1ccccc1,11.8

# Reference: publication PMC4336329 (PLoS ONE, 2015)
